The text below walks through data of the supplement of paper PMC11417369.

This is one part of the list.

The test system of this assay is PfSIP2 AP2 domain 1 (GST-tagged). As to the kind of experiment: gcPBM binding intensity (ln(normalized median fluorescence intensity)); higher = stronger DNA binding. In short, it runs like this:
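GST-fused DNA-binding domains of P. falciparum, expressed in E. coli, were applied at about 25 μg on average for 1 h to an Agilent 4 × 180k array of primer-extended double-stranded 36-bp intergenic genomic probes and negative controls. Binding intensity is the highest Masliner-normalised natural-log median intensity across replicate spots of either probe orientation, measured with Alexa488 anti-GST antibody and a 488 nm scan.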
With “GGAGCACCCAGACACACACACACATATATATATATA [CACACA_site336]”, the “gcPBM binding intensity (ln)” value worked out at 9.19. On to “TATTATATTTTTATTTGTACGTAAAATTAAGTTATG [XGTACX_site2405]”, for which the “gcPBM binding intensity (ln)” value came out at 7.14.

For “AAAAATATAAACAAACGTACGAAGTGATGATATATT [XGTACX_site2242]”, the “gcPBM binding intensity (ln)” value came out at 7.02. For “GTTAAAAGAAAAATATGTACATAAAAAAATTAGAAA [XGTACX_site578]” the value was 6.99; for “CTCTTGTTTCCATATAGTACGTAATAATATATACAA [XGTACX_site2428]”, 7.51; for “AAGATGGTAAAGAATTGTACGCGCATATATATATTT [XGTACX_site3904]”, 7.21.

For the sequence “TTTTCAATTAAAAAAAAATTATATTTTATTATTACA [CACACA_negctrl_site142]”, the “gcPBM binding intensity (ln)” value turned out to be 6.57. With “TATATATATATATGATGTACACATTTTATTATTTGT [XGTACX_site1147]” the figure was 9.38; with “AATTTGATAATATCATGTACATGAAAGAATTCATGA [XGTACX_site8463]”, 6.69. Turning to “AATAAAAAAATATGAAATTATGACATATAGCATTTG [TGCATGCA_negctrl_site160]”, the “gcPBM binding intensity (ln)” value came to 6.68. With “TACATAAATTAAAACACACACACACCCAAAAAAAAA [CACACA_site2261]” the figure was 7.12; with “AAAAAATAAAAAGATACACACATATGTATAATATAC [CACACA_site1496]”, 6.91; with “GTGTATATTATTTTATCACACATGTACATATGTTAA [CACACA_site5473]”, 7.16.

Turning to “GGCATAAATATATGCACACACAAAAAAAAAAAAAAA [CACACA_site59]”, the “gcPBM binding intensity (ln)” value turned out to be 7.61. For “TTTTTTTTTTTAAAAAGTACACAATTAATTAATATA [XGTACX_site8494]” the value was 7.05.

In the case of “ATATTGTTTTATATAGAACACACATAAAAATATATA [CACACA_site8314]”, the “gcPBM binding intensity (ln)” value is 7.04.

With “TTATTGAAAAAAGAACAAAAAAAAAAAGAAAAATTA [XGTACX_negctrl_site438]”, the “gcPBM binding intensity (ln)” value came out at 6.51.

In the case of “TATAAACATTATAAATGTACAAATATATATATATAT [XGTACX_site3218]”, the “gcPBM binding intensity (ln)” value turned out to be 9.2. As for “ATATATATATATATATGTACTTATTTGAATACTAAA [XGTACX_site2330]”, the “gcPBM binding intensity (ln)” value was 9.31. With “GAAAGAATAAAATTTACACACATATATATATACATA [CACACA_site2250]” the figure was 6.84; with “AAAATAAGAAATAGATGTACTTATAAATAAATACAA [XGTACX_site4441]”, 6.71; with “TCATTATATCATGGTAGTACTCATTAATAATACGTA [XGTACX_site8701]”, 7.2. With “TATATATTTTTTAAACCACACACAATATAGAGTATA [CACACA_site8106]” the figure was 7.24; with “AATATTATTTAGGAGCGTACGTTTTATTTACATATT [XGTACX_site5188]”, 6.8. With “GTTAATAAAAATATATGTACATAATTATTATGAAAA [XGTACX_site3030]” the figure was 7.15; with “GGACATTTTTATAAGGTGCACGGTTTTGATATTACT [GTGCAC_site9892]”, 11.1; with “ATAATGATATATAGTACACACAAAAATGGAAGTAAA [CACACA_site7541]”, 7.22. For the sequence “AACCACATACATATAACACACATATACAATATATAT [CACACA_site8607]”, the “gcPBM binding intensity (ln)” value was 7.29. With “TGACTATGTATATTTAGTACATAAAATCAATAATAT [XGTACX_site4082]” the figure was 7.05; with “AAGGGTTGCCTGTGTAGTACATATATATATATATAT [XGTACX_site8555]”, 9.47. With “TCATTCATAAAAATAACACACAAAAAAAAAAAAAAA [CACACA_site1800]” the figure was 6.92; with “AAATTATATTATTGAACACACGTTTGGTAATGTTTT [CACACA_site5469]”, 6.78. Turning to “AAATATAAGAAAAAGGTGCTTTTTTTTTTTTTTTTT [GTGCAC_site9700]”, the “gcPBM binding intensity (ln)” value amounted to 8.42. With AGGGAAAAAAAAAAAGTGCATTTGTATTAAATGAAT the figure was 8.62; with “GTAAACAAAATATTTTGTACATATTTTATATTATTT [XGTACX_site7837]”, 6.96; with “AAAAGATGCGCATACACACAGATGAATAACAAAAAA [CACACA_site6865]”, 7.11. With “GCACATTTTTTTATCACACATATAATTACAATATAA [CACACA_site5585]” the figure was 7.74; with “TACGTATGCCTGTGATGTACATATATATATACATAC [XGTACX_site4728]”, 7.06. For “TTTCGGTTTTTTTTTATTTTTTTTTTTTTATTATTT [CACACA_negctrl_site335]” the value was 6.78; for “ATATAGGTAAAAAGTATACACACGTTGACACATTCT [CACACA_site1199]”, 6.95; for “ATAATATAATTTTGCAGTACCCAAAAAACAAAATAA [XGTACX_site4827]”, 7.05. For the sequence “AATATGATATATATATGTACATATATATAATATAAT [XGTACX_site3072]”, the “gcPBM binding intensity (ln)” value was 7.35. Take “AAAGTATAATAATACACACACTTTAAAAGTTAAATG [CACACA_site7550]”: the “gcPBM binding intensity (ln)” value stood at 7. For “AAAAGAAAATAAGAAACACACAAAAATATATAAAAA [CACACA_site3697]” the value was 6.65; for “TTCTTTGCTTTTCAAACACACAAAAGTTATTATATT [CACACA_site521]”, 7.22.
